Test results published in the supplement of paper PMC9446081.
Out of some 39,000 compounds screened, about 220 (0.56%) showed activity. Some of the results follow.

Each compound was assayed on Escherichia coli K-12 BW25113 (assay: relative growth (OD600 normalised to plate interquartile mean) (fraction); higher = less growth inhibition, active = 0.2 or less). Conditions: 50 µM; LB; incubation time: overnight (16-24 h).
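Further: static incubation at 37 °C against the wild-type strain, values averaged over two biological replicates.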

Structure (SMILES) | relative growth
COc1ccc(S(=O)(=O)Nc2ccc3c(c2)C(=O)N([C@H](C)CO)C[C@H](C)[C@@H](CN(C)C(=O)Nc2ccccc2)OCCCC[C@@H](C)O3)cc1 | inactive: 1.03
C[C@@H]1CCCCO[C@@H](CN(C)C(=O)NC2CCCCC2)[C@@H](C)CN([C@H](C)CO)C(=O)c2cc(NC(=O)Nc3ccc(F)cc3)ccc2O1 | inactive: 0.979
C[C@@H]1CN([C@H](C)CO)C(=O)c2cc(NS(C)(=O)=O)ccc2O[C@@H]1CN(C)S(C)(=O)=O | inactive: 0.992
C[C@@H]1CCCCO[C@@H](CN(C)S(C)(=O)=O)[C@@H](C)CN([C@H](C)CO)C(=O)c2cc(NC(=O)CCCN(C)C)ccc2O1 | inactive: 0.977
Cn1nc(CNc2ncccn2)c2c1CNCC2 | inactive: 1.05
C[C@H](CO)N1C[C@H](C)[C@H](CN(C)Cc2cccc(C(=O)O)c2)Oc2ncc(C#CCN(C)C)cc2C1=O | inactive: 0.981
CS(=O)(=O)N1CC[C@]2(COCc3cnc(N4CCOCC4)nc32)C1 | inactive: 1.04
CNC[C@@H]1OCCCC[C@@H](C)Oc2ccc(NC(=O)Nc3ccc(C(F)(F)F)cc3)cc2C(=O)N([C@@H](C)CO)C[C@@H]1C | inactive: 0.984
C=CCOc1ccc(CNn2nnnc2N)cc1 | inactive: 0.984
Cc1noc(C)c1S(=O)(=O)N(C)C[C@@H]1Oc2ccc(NC(=O)NC3CCCCC3)cc2CC(=O)N([C@H](C)CO)C[C@H]1C | inactive: 1.01
CC(=O)N1CCn2c(-c3cnn(C)c3)cnc2C12CCN(S(=O)(=O)C1CC1)CC2 | inactive: 0.981
COCC#Cc1cnc2c(c1)C(=O)N([C@H](C)CO)C[C@@H](C)[C@H](CN(C)C(=O)Nc1ccc(OC)cc1)O2 | inactive: 1.01
C[C@H]1CN([C@@H](C)CO)C(=O)Cc2cc(NC(=O)C3CC3)ccc2O[C@@H]1CN(C)Cc1ccc(Oc2ccccc2)cc1 | inactive: 0.949
Cc1ccc(S(=O)(=O)N(C)C[C@H]2Oc3ncc(-c4ccncc4)cc3C(=O)N([C@@H](C)CO)C[C@H]2C)cc1 | inactive: 0.957
COc1ccc(NC(=O)N(C)C[C@@H]2Oc3c(NC(=O)C4CC4)cccc3C(=O)N([C@@H](C)CO)C[C@H]2C)cc1 | inactive: 0.963
C[C@@H]1CN([C@@H](C)CO)C(=O)Cc2cc(NC(=O)c3ccncc3)ccc2O[C@@H]1CN(C)S(C)(=O)=O | inactive: 1.02
C[C@@H]1CN([C@@H](C)CO)C(=O)c2cc(NC(=O)c3ccncc3)ccc2O[C@@H]1CN(C)Cc1ccc(-c2ccccc2)cc1 | inactive: 0.895
COc1ccc(CN(C)C[C@H]2OCCCC[C@H](C)Oc3ccc(NC(=O)Nc4cccc5ccccc45)cc3C(=O)N([C@H](C)CO)C[C@H]2C)cc1 | inactive: 1.06
C[C@H](CO)N1C[C@H](C)[C@@H](CN(C)Cc2ccc(Cl)c(Cl)c2)Oc2ccc(NS(=O)(=O)c3ccc(F)cc3)cc2C1=O | inactive: 1.01
C/C=C/C1=C(C(=O)O)N2C(=O)[C@@H](NC(=O)[C@H](N)c3ccc(O)cc3)[C@H]2SC1 | inactive: 0.876

Structure (SMILES) | relative growth
C[C@@H]1CN([C@@H](C)CO)C(=O)Cc2cc(NC(=O)Nc3ccc4c(c3)OCO4)ccc2O[C@@H]1CN(C)S(C)(=O)=O | inactive: 0.742
Clc1cccn2nnnc12 | inactive: 1
Cc1noc(C)c1S(=O)(=O)Nc1ccc2c(c1)CC(=O)N([C@@H](C)CO)C[C@@H](C)[C@@H](CN(C)C(=O)NC(C)C)O2 | inactive: 1
C[C@H]1CN([C@@H](C)CO)C(=O)c2cccc(NC(=O)Nc3ccc(C(F)(F)F)cc3)c2O[C@H]1CN(C)C(=O)Nc1ccc(F)cc1 | inactive: 0.913
NC(=O)[C@H]1CSCCC(=O)N1 | inactive: 0.977
CNC(=O)c1c(F)cccc1Nc1nc(Nc2cc3c(cc2OC)CCN3C(=O)CN(C)C)nc2[nH]ccc12 | inactive: 0.996
COCCCNC(=O)[C@@]1(CCS(=O)(=O)c2ccccc2)COC(c2ccc(OCCCO)cc2)=N1 | inactive: 1.01
CC(C)(C)OC(=O)C[C@@H]1CC=CC[C@@H](CC(=O)N[C@@H](CO)Cc2ccccc2)C(=O)N[C@@H](C(C)(C)C)COC1=O | inactive: 1
CO[C@@H]1CN(C)C(=O)c2cc(NC(=O)CC(F)(F)F)ccc2OC[C@@H](C)N(C(=O)C2CCOCC2)C[C@@H]1C | inactive: 1.02
CC(C)CNC(=O)CSc1nnc[nH]1 | inactive: 0.976
C[C@H](CO)N1C[C@H](C)[C@H](CN(C)C(=O)Nc2ccc(C(F)(F)F)cc2)Oc2ccc(NC(=O)Cc3cn(C)c4ccccc34)cc2C1=O | inactive: 1.01
C[C@@H]1CN([C@@H](C)CO)C(=O)c2cc(C#CCc3ccccc3)cnc2O[C@H]1CN(C)CC1CCOCC1 | inactive: 0.99
COc1ccc(S(=O)(=O)Nc2ccc3c(c2)CC(=O)N([C@H](C)CO)C[C@@H](C)[C@H](CN(C)CC2CC2)O3)cc1 | inactive: 0.976
COc1ccc(NC(=O)Nc2ccc3c(c2)C(=O)N([C@@H](C)CO)C[C@H](C)[C@@H](CN(C)S(=O)(=O)c2ccccc2)OCCCC[C@H](C)O3)cc1 | inactive: 1.02
Nc1ccn([C@H]2CC[C@@H](CO)O2)c(=O)n1 | inactive: 0.974
O=C(NCCCn1ccnc1)C(=O)NC[C@H]1OCCN1S(=O)(=O)c1ccc(F)cc1 | inactive: 1.01
CN1CCN(C(=O)C[C@@H]2CC[C@@H]3[C@H](COC[C@H](O)CN3Cc3ccc(Oc4ccccc4)cc3)O2)CC1 | inactive: 0.995
COc1ccc(S(=O)(=O)Nc2ccc3c(c2)C(=O)N([C@@H](C)CO)C[C@@H](C)[C@@H](CN(C)C(=O)CCC(F)(F)F)OCCCC[C@H](C)O3)cc1 | inactive: 0.972
Cn1cnc(S(=O)(=O)N2C[C@@H](O)COC[C@H]3O[C@H](CC(=O)NC4CCCC4)CC[C@@H]32)c1 | inactive: 1.02
C[C@@H]1CN([C@@H](C)CO)C(=O)Cc2cc(NC(=O)Cc3cn(C)c4ccccc34)ccc2O[C@H]1CN(C)Cc1ccc(Cl)c(Cl)c1 | inactive: 0.968
